Source: PubChem BioAssay (NCATS)
This list was built around the results that the source calls inconclusive (neither active nor inactive); the mix of calls is not that of the screen. Where the call is inconclusive, the potency comes from a doubtful curve fit. Activity calls are given as the source filed them. Unless noted, the call rests on the fitted dose curve; in most records, active means well fitted inhibition curve with a large enough effect; inconclusive means small, poorly fitted or top-dose-only effect; inactive means no such curve, though single readings can be large or run the other way.

How the values were obtained:
[1] = target: Aldehyde dehydrogenase, mitochondrial (Homo sapiens) (UniProt P05091); assay: qHTS for Inhibitors of the Aldehyde Dehydrogenase Family (ALDH2) Confirmatory screens (AID 2061303; active means well fitted inhibition curve with a large enough effect; inconclusive means small, poorly fitted or top-dose-only effect; inactive means no such curve, though single readings can be large or run the other way; title and protocol of this record describe different tests; further: nearly all actives have a fitted effect of over 45% in size); settings: ALDH inhibition qHTS; activity change, negative = inhibition: at 45.4 µM (top of the series)
[2] = target: Aldehyde dehydrogenase 1A1 (Homo sapiens) (UniProt P00352); assay: qHTS for Inhibitors of the Aldehyde Dehydrogenase Family (ALDH1A1) Confirmatory screens (AID 2061316); settings: activity change, negative = inhibition: at 47.3 µM (top of the series); further: nearly all actives have a fitted effect of over 65% in size
[3] = target: Retinal dehydrogenase 2 (Homo sapiens) (UniProt O94788); assay: qHTS for Inhibitors of the Aldehyde Dehydrogenase Family (ALDH1A2) Confirmation screens (AID 2061314); settings: activity, negative = inhibition: at 45.9 µM (top of the series) unless noted; further: nearly all actives have a fitted effect of over 65% in size
[4] = target: Retinaldehyde dehydrogenase 3 (Homo sapiens) (UniProt P47895); assay: qHTS for Inhibitors of the Aldehyde Dehydrogenase Family (ALDH1A3) Primary screen (AID 2061315); settings: ALDH inhibition qHTS; activity change, negative = inhibition: at 56 µM (top of the series) unless noted
Potency means the concentration at half of the fitted maximal effect; tags describe the fitted curve by direction and shape.

Row | SMILES | Potency [1] | Potency [2] | Potency [3] | Potency [4]
1 | NC(=O)C1CCN(c2ncc(-c3ccc4c(c3)OC(F)(F)O4)s2)CC1 | inconclusive: 22.5 µM [inhibitor, partial curve] | inconclusive: 2.52 µM [inhibitor, full curve] |  | 
2 | O=C1CCCC2=C1C(c1[nH]ncc1Cl)NC(=S)N2 (stereo unspecified) | inactive | inconclusive: 20.1 µM [inhibitor, partial curve] | inconclusive: 25.2 µM [inhibitor, partial curve] | 
3 | O=C(NC1CC(=O)N(c2ccccc2)C1)c1ccc(S(=O)(=O)N2CCOCC2)cc1 (stereo unspecified) | inactive |  | inactive | 
4 | CC(=O)c1ccc(N2CCN(C(=O)CCS(=O)(=O)c3ccc4c(c3)oc(=O)n4C)CC2)cc1 | inconclusive: 3.55 µM [inhibitor, full curve, poor fit] | inconclusive: 20.5 µM [inhibitor, partial curve] | inconclusive: 16.2 µM [inhibitor, partial curve] | 
5 | COc1ccc(C2Nc3ccccc3C(=O)N2Cc2cccc3ccccc23)cc1COc1ccc(NC(C)=O)cc1 (stereo unspecified) | inconclusive: 20.1 µM [inhibitor, partial curve] | active: 4 µM | active: 22.5 µM | 
6 | COc1cccc(S(=O)(=O)N2CCC3(CC2)CC(CC(=O)NC2CC2)CCO3)c1 (stereo unspecified) | inconclusive: 22.9 µM [inhibitor, partial curve, poor fit] | inconclusive: 18.2 µM [inhibitor, partial curve] | inconclusive: 5.01 µM [inhibitor, partial curve] | 
7 | c1cc2c(cc1CNc1ccc(N3CCCCC3)cc1)OCO2 | inconclusive: 14.2 µM [inhibitor, partial curve, poor fit] | inconclusive: 25.2 µM [inhibitor, partial curve] | inconclusive: 15.9 µM [inhibitor, partial curve] | inconclusive: 10 µM [inhibitor, partial curve, poor fit]
8 | CCc1ccc(-n2c(=O)c3cccnc3n2CC(=O)N(CC)c2cccc(C)c2)cc1 | inconclusive: 18.2 µM [inhibitor, partial curve] | active: 11.5 µM | inconclusive: 12.9 µM [inhibitor, partial curve] | 
9 | O=c1cc(-c2ccccn2)oc2c(Nc3ccccc3)nccc12 | inactive | inconclusive: 18.7 µM [inhibitor, partial curve] | inconclusive: 26.4 µM [inhibitor, partial curve] | 
